Values marked as one replicate rest on one cluster of the flow cell; about a third of the high ones do not repeat.
tested on: ATP; test: switch fluorescence ratio, 500 uM ATP over buffer (Cy3 cluster intensity, sum of 5 cycles each) (fold (ratio)); higher = stronger signal-on switching upon ATP binding; sequences stand for … in TCGTCGGCAGCGTCAGATGTGTATAAGAGACAGTTTTTTTTTTTTTTTTTTTTTTTTT…TC; details: aptamer strand: ATP DNA aptamer (quencher-CACCTGGGGGAGTATTGCGGAGGAAGG + anchor), 100 nM annealed; ATP concentration: 500 uM; one replicate
Method in brief: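 Values give the fluorescence ratio for each switch-domain sequence, averaged from per-cluster ratios of summed target-cycle to summed buffer-cycle Cy3 intensity. The Cy3-labelled switching-strand clusters sat on a modified Illumina MiSeq flow-cell, were annealed to 100 nM quencher-labelled ATP aptamer, and were imaged in selection buffer, then after 15 min with 500 uM ATP at 22 °C. Five cycles ran with NaOH stripping and re-annealing between them, and clusters outside 100-1000 RFU were excluded.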
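Also: ATP exposure 15 min at 22 °C before imaging.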

Sequence | switch fluorescence ratio
CAGCGTTGAG | 1.01
CAGCTAGCTG | 0.998
CAGCTATTTG | 1.04
CAGCTCTATG | 1.03
CAGCTGTCCG | 0.994
CAGCTGTGGG | 1.06
CAGGAAGCCT | 1.12
CAGGAAGGGT | 0.986
CAGGAAGTGA | 0.991
CAGGAATAAT | 1.03
CAGGACTGG | 0.959
CAGGAGAATT | 0.995
CAGGAGCTTG | 1.06
CAGGAGGCGA | 1.04
CAGGAGTTCT | 0.991
CAGGATCTGG | 1.01
CAGGATTGTA | 1.02
CAGGCAGGT | 0.997
CAGGCAGGTG | 2.74
CAGGCAGTCC | 1.01
CAGGCGAGG | 1.01
CAGGCGCCTC | 0.975
CAGGCGGCTG | 0.972
CAGGCGGGGT | 0.988
CAGGCGGTC | 1.01
CAGGCTGCCA | 1.01

Sequence | switch fluorescence ratio
CAGGGAGACA | 1.01
CAGGGAGTCT | 0.994
CAGGGCAAAG | 1.02
CAGGGCACCT | 1.05
CAGGGCGATT | 1.01
CAGGGGGACC | 0.955
CAGGGGGCGG | 0.966
CAGGGGTCGG | 1
CAGGGGTTCT | 1.01
CAGGGTATAA | 1.02
CAGGGTCAGA | 1.05
CAGGGTTCTA | 0.984
CAGGTAGGCT | 1.05
CAGGTATAAT | 1
CAGGTATGAC | 1.04
CAGGTCAACA | 0.992
CAGGTCCGG | 0.986
CAGGTGAATT | 1.3
CAGGTGGGAA | 1.12
CAGGTGTTAA | 1.1
CAGGTTGCGG | 0.952
CAGGTTTATT | 0.968
CAGGTTTTTA | 0.962
CAGTACCAAC | 1.09
CAGTAGGTCA | 0.981
CAGTAGTCAG | 0.978

Sequence | switch fluorescence ratio
CAGTATCTTA | 1.01
CAGTCTCGGC | 0.984
CAGTGAA | 0.982
CAGTGAACGG | 0.978
CAGTGAACTT | 1.03
CAGTGACTGG | 0.989
CAGTGCCCGC | 1.01
CAGTGCGGAA | 1.07
CAGTGCTGGA | 1.02
CAGTGGCACG | 1
CAGTGGGGA | 1.04
CAGTGGGGAT | 1.09
CAGTGTGAGT | 0.951
CAGTGTGCGT | 1.02
CAGTTAACA | 0.999
CAGTTAATAT | 0.995
CAGTTACTGT | 1
CAGTTACTTC | 1.04
CAGTTATAGG | 1.05
CAGTTATGAA | 1.03
CAGTTCAGGC | 1.03
CAGTTCGTCG | 0.927
CAGTTCTAAT | 1.01
CAGTTCTTAG | 0.99
CAGTTGGAGA | 0.991
CAGTTGTCCT | 0.998

Sequence | switch fluorescence ratio
CATAAAGGG | 1.01
CATAAATATG | 1
CATAACACAG | 1
CATAACGTCG | 0.986
CATAACTGCA | 1.07
CATAACTTCG | 1.04
CATAAGAGCT | 1.01
CATAAGTTG | 1.02
CATAATAGAC | 1.03
CATAATTTTG | 0.963
CATACCAGTC | 1.06
CATACCGGCG | 1.01
CATACCGGTT | 1.01
CATACCTGGT | 1.02
CATACGAGAG | 1.05
CATACGGAAA | 1.08
CATACGGGCC | 1.06
CATACTTGAC | 0.999
CATAGAACGT | 1.04
CATAGCAATG | 3.42
CATAGCTTGG | 1
CATAGTTCGG | 0.998
CATATCTCCT | 1.02
CATATGTGAG | 0.991
CATATTTTGG | 0.987
CATCAAAACC | 1.04

Sequence | switch fluorescence ratio
CATCAAAAGA | 1.02
CATCAACCTG | 0.988
CATCAAGAAA | 0.95
CATCACGCTT | 1.72
CATCAGAGTG | 1.05
CATCAGCC | 1.27
CATCAGGAGA | 0.981
CATCATGCGT | 1
CATCCCCAAA | 2.19
CATCCCGACG | 1.22
CATCCGCGTG | 1.77
CATCCGCTGT | 4.96
CATCCGGGCC | 1.06
CATCCTACGA | 1.18
CATCGACACC | 1.06
CATCGAGTGC | 1.04
CATCGATGTA | 0.977
CATCGATGTG | 1.02
CATCGGATTG | 0.979
CATCGGTCAT | 1.08
CATCGGTGCC | 0.932
CATCGGTTAA | 0.983
CATCTAGGTC | 1.16
CATCTGAAAT | 1.19
CATCTGACAC | 1.24
CATCTGGACC | 1.09

Sequence | switch fluorescence ratio
CATCTTGGGA | 0.985
CATGAAATGT | 1.06
CATGAACGAT | 0.972
CATGAAGGA | 0.973
CATGAAGGAC | 1.05
CATGACGGCA | 0.961
CATGACTAGG | 0.999
CATGAGCAGT | 1.27
CATGAGGA | 0.956
CATGAGGTGG | 1.25
CATGAGTAG | 1.02
CATGAGTGCG | 0.933
CATGATGCAG | 1.01
CATGATTGGC | 1
CATGCAATCG | 1.3
CATGCCATGT | 0.993
CATGCCGGTG | 1.03
CATGCGCGTC | 1.12
CATGCGGGAC | 1.65
CATGCGTCCG | 1.03
CATGCGTTT | 1
CATGGAAGTT | 0.989
CATGGACTGG | 0.998
CATGGATCAG | 1
CATGGATCCT | 1.03
CATGGCAGTC | 1.07

Sequence | switch fluorescence ratio
CATGGGGTAC | 1.01
CATGGGTCGG | 0.961
CATGGGTTAG | 1.01
CATGGTAATC | 1
CATGTAACCA | 1.04
CATGTAAGGT | 0.992
CATGTATACC | 1.01
CATGTCCGGC | 0.966
CATGTGGGGC | 1.03
CATGTGTATC | 0.998
CATGTGTGTT | 0.982
CATGTTAAAA | 1.04
CATGTTACGA | 1.05
CATGTTCACG | 1.04
CATGTTCTTG | 0.972
CATTAACAGT | 0.983
CATTACATCC | 1.07
CATTACCAGA | 1.04
CATTATAAAC | 0.973
CATTATCTTT | 1
CATTATGGCG | 0.934
CATTATGTCG | 1.14
CATTCAGCAT | 1.7
CATTCCAAG | 1.03
CATTCCTAGG | 1.05
CATTCCTTTG | 1.1

Sequence | switch fluorescence ratio
CATTCTCACT | 0.99
CATTCTTCCG | 2.18
CATTGAAGG | 0.99
CATTGACAGG | 1.04
CATTGAGCGA | 1.03
CATTGCGGCT | 1.05
CATTGGAAAG | 0.997
CATTGGAGCT | 1.07
CATTGGCGAC | 1.03
CATTGGCGAT | 1.12
CATTGGGGC | 1.03
CATTGGTCTG | 0.975
CATTGTTTAA | 0.991
CATTTACTAG | 1.02
CATTTAGTGC | 0.849
CATTTATGTT | 1.01
CATTTCCTAG | 0.975
CATTTCGGTA | 1.01
CATTTCTTTA | 0.994

— the supplement of paper PMC10126150
